Laboratory results as given in PubChem BioAssay AID1768 (National Center for Advancing Translational Sciences (NCATS), 2009).
Out of some 270,000 compounds screened, about 620 (0.23%) were called active. This list was built around the results that the source calls inconclusive (neither active nor inactive); the mix of calls is not that of the screen. Calls come from the whole dose curve; as a rule, active = well fitted inhibition curve with a large enough effect in the polarisation, with a control signal flat (not every such curve was filed as active); inconclusive = small, poorly fitted or top-dose-only effect, or effect the other way, or a change in a side signal; inactive = no such curve, though single readings can be large or run the other way; the % refers to the polarisation. Potencies beside an inconclusive call are fits to weak or partial responses and may not hold up. “Side channel” marks fits to a control or component signal instead of the main read-out.

Biological target: Menin (Homo sapiens) (UniProt O00255)
Experiment: qHTS Assay for Inhibitors Targeting the Menin-MLL Interaction in MLL Related Leukemias: Competition With Texas Red Labeled MLL-derived Mutant Peptide; for FP activity change, negative = inhibition: % of control where 0% means no effect
Settings: fluorescence polarization; FP activity change, negative = inhibition: at 61.6 µM (top of the series)
Potency is the fitted concentration of half-maximal effect; tags give direction and shape of the fitted curve or compound fluorescence and quenching.

Chain of UniProt O00255 (O00255 whole entry, looked up): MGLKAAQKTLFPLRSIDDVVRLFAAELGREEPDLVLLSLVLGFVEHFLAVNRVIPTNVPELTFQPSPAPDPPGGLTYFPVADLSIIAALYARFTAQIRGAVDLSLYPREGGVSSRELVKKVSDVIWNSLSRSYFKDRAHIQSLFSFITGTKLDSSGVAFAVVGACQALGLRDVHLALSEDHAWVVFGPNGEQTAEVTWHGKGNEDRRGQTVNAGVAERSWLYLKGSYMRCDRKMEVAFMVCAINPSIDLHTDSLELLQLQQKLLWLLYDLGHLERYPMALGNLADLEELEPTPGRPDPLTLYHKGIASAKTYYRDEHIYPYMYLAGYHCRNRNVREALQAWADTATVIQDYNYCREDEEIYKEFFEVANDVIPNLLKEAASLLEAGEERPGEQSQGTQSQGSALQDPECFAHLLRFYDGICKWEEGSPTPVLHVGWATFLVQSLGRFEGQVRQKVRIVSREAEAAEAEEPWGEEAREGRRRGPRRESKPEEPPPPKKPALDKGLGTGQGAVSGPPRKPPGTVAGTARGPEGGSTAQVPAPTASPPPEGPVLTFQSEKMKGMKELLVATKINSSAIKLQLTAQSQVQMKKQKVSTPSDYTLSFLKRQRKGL

Structure (SMILES)	Potency	FP activity change, negative = inhibition
CN1CCc2c(sc3nc(SCC(N)=O)n(-c4ccc(Cl)cc4)c(=O)c23)C1	inconclusive: 22.4 µM [inhibitor, partial curve, poor fit]	
Cc1ccc(OCC(=O)Nc2cc(NC(=O)COc3ccc(C)c(C)c3)cc(C(=O)O)c2)cc1C	inconclusive: 11.2 µM [quencher, side channel, partial curve]	
CCn1cc(C(=O)NCCCN2CCCC(C)C2)c(=O)c2cc(S(=O)(=O)N3CCOCC3)ccc21 (centres undefined)	inconclusive: 8.91 µM [inhibitor, partial curve]	
CC1=C(C(=O)OC(C)(C)C)C(c2ccc3ccccc3c2)NC(=O)N1C (centres undefined)	inconclusive: 5.01 µM [fluorescent, side channel, full curve]	
CSc1nsc2nc(=O)c(/C=C3\C=Nc4ccccc43)c(N)n12	inconclusive: 14.1 µM [quencher, side channel, partial curve]	
CCOC(=O)N1CCN(C(=O)COc2ccccc2OC)CC1	inconclusive: 12.6 µM [inhibitor, partial curve]	
COc1cc(S(=O)(=O)Nc2ccc3cn[nH]c3c2)ccc1Cl	inconclusive: 39.8 µM [quencher, side channel, single point]	
CCOC(=O)Nc1ccc2c(c1)Nc1ccccc1S2	inconclusive: 12.6 µM [quencher, side channel, partial curve]	
Cc1cc(O)c(C=O)c2c1C(=O)Oc1c(COC(=O)/C=C/C(=O)O)c(O)c(C(=O)O)c(C)c1O2		inactive: 67.6%
FC(F)(F)c1cccc(NC(=S)N2CCN(c3cccc(C(F)(F)F)c3)CC2)c1	inconclusive: 7.08 µM [quencher, side channel, single point]	
CCN(CC)c1ccc(NC(=O)/C=C\c2ccccc2Cl)cc1	inconclusive: 3.98 µM [quencher, side channel, full curve]	
CCOc1ccccc1C(=O)NC1CCN(Cc2nnnn2C2CCCC2)CC1	inconclusive: 22.4 µM [fluorescent, side channel, single point]	
COc1ccc(S(=O)(=O)Nc2ccc(S(=O)(=O)Nc3nccs3)cc2)cc1		inactive: 18.7%
O=C(Nc1ccc(F)cc1)c1cc(S(=O)(=O)Nc2ccc(F)cc2)cs1	inconclusive: 10 µM [quencher, side channel, partial curve]	
COc1cc(C(c2c(C)[nH][nH]c2=O)c2c(C)[nH][nH]c2=O)ccc1OC(=O)c1cccc([N+](=O)[O-])c1	inconclusive: 31.6 µM [quencher, side channel, single point]	
CC(C)COc1ccc(C(=O)Nc2sc3c(c2C(=O)O)CC(C)(C)OC3)cc1	inconclusive: 3.16 µM [quencher, side channel, full curve]	
Nc1nonc1-n1nnc(C(=O)N/N=C/c2cccc(F)c2)c1-c1ccccc1	inconclusive: 39.8 µM [quencher, side channel, single point]	

Structure (SMILES)	Potency	FP activity change, negative = inhibition
CC(=O)O[C@H]1C[C@H]2CC[C@@H]3[C@H]4C[C@@H]([N+]5(C)CCCCC5)[C@@H](OC(C)=O)[C@]4(C)CC[C@@H]3[C@@]2(C)C[C@@H]1[N+]1(C)CCCCC1		inactive: -2.96% [at 24.8 µM]
CC(CNc1ccc([N+](=O)[O-])c2cccnc12)Nc1c([N+](=O)[O-])cc(C(F)(F)F)cc1[N+](=O)[O-] (centres undefined)	inconclusive: 11.2 µM [quencher, side channel, partial curve]	
COc1cc2c3c(c1)C(C)=CC(C)(C)N3C(=O)C2=O	inconclusive: 10 µM [fluorescent, side channel, partial curve]	
CCN(Cc1ccc(C#CCCO)cc1)CC1CCCN(CCc2cccc(OC)c2)C1 (centres undefined)	inconclusive: 20 µM [inhibitor, partial curve]	
CCOc1ccccc1NC(=O)C(=O)/C=C(\O)c1cc(OC)ccc1OC	inconclusive: 25.1 µM [quencher, side channel, single point]	
COC(=O)Cn1c(=NC(=O)c2cc(OC)cc(OC)c2)sc2cc(OC)ccc21	inconclusive: 3.16 µM [quencher, side channel, full curve]	
CC(=O)Nc1ccc(S(=O)(=O)N2CCN=C2SCc2ccc([N+](=O)[O-])cc2)cc1	inconclusive: 14.1 µM [quencher, side channel, partial curve]	
COCCn1c(-c2ccc(OC(F)(F)C(F)C(F)(F)F)cc2)nc2c1c(=O)[nH]c(=O)n2CC(C)C (centres undefined)	inconclusive: 5.01 µM [fluorescent, side channel, full curve, poor fit]	
Cc1c(NC2=CC(=O)CC(C)(C)C2)c(=O)n(-c2ccccc2)n1C	inconclusive: 2.82 µM [quencher, side channel, full curve, poor fit]	
Cc1ccc(CS(=O)(=O)CCC(=O)NCCN2CCCCC2C)cc1 (centres undefined)	inconclusive: 3.16 µM [inhibitor, single point]	
O=C(CCN1C(=O)/C(=C\c2ccccc2)SC1=S)Nc1ccc(C(=O)O)cc1	inconclusive: 25.1 µM [quencher, side channel, partial curve]	
CCOc1nc(NCc2ccco2)nc(Nc2ccc(OC)cc2)n1	inconclusive: 31.6 µM [quencher, side channel, single point]	
S=C(NCc1ccccc1)N1CCN(c2cccc(Cl)c2)CC1	inconclusive: 10 µM [quencher, side channel, partial curve]	
C(=N\Nc1nc2ccccc2s1)/c1ccc2c(c1)OCO2	inconclusive: 12.6 µM [quencher, side channel, partial curve]	
O=S(=O)(c1ccc(Cl)s1)N1CCN(C/C=C/c2ccccc2)CC1		inactive: -1.13%
Cc1cc(C)c(S(=O)(=O)c2ccccc2)c(=O)[nH]1	inconclusive: 0.708 µM [inhibitor, full curve, poor fit]	
CC(=O)c1ccc(-n2c(CCC(=O)O)ccc2-c2cccs2)cc1	inconclusive: 39.8 µM [quencher, side channel, single point]	
